Several values for one entry are separate records, joined by “and”; a condition that tells them apart may be missing. Identical values can stand only once. Among all 410,000 compounds or so, about 5,000 (1.2%) were called active. This list was built around the results that the source calls inconclusive (neither active nor inactive); the mix of calls is not that of the screen. Calls come from the whole dose curve; as a rule, active = well fitted inhibition curve with a large enough effect; inconclusive = small, poorly fitted or top-dose-only effect; inactive = no such curve, though single readings can be large or run the other way. Where the call is inconclusive, the potency comes from a doubtful curve fit.
Assay: qHTS for Inhibitors of TGF-b; note: nearly all actives have a fitted effect of over 65% in size
Details: HepG2 CAGA-GFP TGF-b/SMAD3 reporter, GFP fluorescence, 18 h, TGF-beta stimulated, 500 pg/mL final; series mostly up to 46.1 µM; activity, negative = inhibition: at the top concentration
Summary of the method: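 Inhibition was scored as loss of TGF-beta-induced (500 pg/mL final, 18 hours, 37 degrees C) GFP in HEPG2 cells carrying a CAGA-GFP reporter, in DMEM with 1% FBS. Well GFP was summed per cell; Activity was normalised to unstimulated and stimulated DMSO wells, then concentration-response fitting.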
% is set by controls: 0 for no effect and ±100 for the full control effect; potency is the fitted concentration of half-maximal effect; tags give direction and shape of the fitted curve.

| SMILES | Potency | activity, negative = inhibition |
| --- | --- | --- |
| CCOc1ccc(C(=O)CN2CCN(S(=O)(=O)c3ccc(OC)cc3)CC2)cc1 | inconclusive: 25.1 µM [inhibitor, single point] |  |
| COc1ccc(Cn2c(SCC(=O)Nc3ccc(OC)cc3)nc3ccccc32)cc1 | inconclusive: 5.62 µM [inhibitor, single point] |  |
| Cc1ccc2oc(C(=O)N(C)Cc3ccon3)c(C)c2c1 |  | inactive: 8.22% |
| NS(=O)(=O)c1cc(C(=O)N2CCNC(=O)C2)ccc1Cl |  | inactive: 2.49% |
| O=C(COCc1cc(-c2ccco2)on1)Nc1cccc(O)c1 |  | inactive: 0% |
| Cc1ccc(OCC(=O)N2CCN(C(=O)c3ccc([N+](=O)[O-])cc3)CC2)cc1 | inconclusive: 12.6 µM [inhibitor, single point] |  |
| O=C(CCCN1C(=O)c2ccccc2C1=O)NCCN1C(=O)S/C(=C\c2cccs2)C1=O | inconclusive: 0.708 µM [inhibitor, partial curve, poor fit] |  |
| CCCCCCN1CCN(C2CN(Cc3ccc(C)cc3)S(=O)(=O)C2)CC1 (stereo not drawn) | inconclusive: 14.1 µM [inhibitor, single point] |  |
| COC(=O)c1cc2cc(OC)ccc2n1C |  | inactive: 10.3% |
| O=C(O)C(Cc1ccc(O)c([N+](=O)[O-])c1)N1C(=O)c2ccccc2C1=O (stereo not drawn) | inconclusive: 25.1 µM [inhibitor, single point] |  |
| Cc1ccc(NC(=O)c2ccc(=O)[nH]c2)cc1S(=O)(=O)N1CCCCCC1 | inconclusive: 35.5 µM [inhibitor, single point] |  |
| Cc1ccc2nc(-c3ccc(Cl)c(NC(=O)c4cccc([N+](=O)[O-])c4C)c3)oc2c1 | inconclusive: 0.112 µM [inhibitor, full curve, poor fit] |  |
| CCn1ccc2cc(S(=O)(=O)N3CCC(C(=O)NCc4ccc(OC)cc4)CC3)ccc21 | inconclusive: 7.94 µM [inhibitor, partial curve, poor fit] |  |
| Cc1ccc(CNC(=O)c2cc(=O)c3ccc(C)cc3o2)cc1 | inconclusive: 35.5 µM [inhibitor, single point] |  |
| O=C(NN=Cc1cc([N+](=O)[O-])ccc1O)c1cccc2ccccc12 | inconclusive: 14.1 µM [inhibitor, partial curve, poor fit] |  |
| CNC(=S)N(Cc1cccs1)Cc1cc2cc(OC)c(OC)cc2[nH]c1=O | inconclusive: 0.282 µM [inhibitor, full curve, poor fit] |  |
| O=c1c2cc(Br)ccc2nc(-c2cccc(C(F)(F)F)c2)n1O | inconclusive: 20 µM [inhibitor, single point] |  |
| Cn1c(SCc2ccccc2)nnc1-c1ccc2c(c1)OCO2 | inconclusive: 6.31 µM [inhibitor, single point] |  |
| COc1cccc(CNc2ccc(N3CCCCC3)cc2)c1OC | inconclusive: 35.5 µM [inhibitor, single point] |  |
| O=C(Cn1cc(SCc2ccccc2)c2ccccc21)N1CCCCCC1 | inconclusive: 22.4 µM [inhibitor, single point] |  |
| CCc1ccccc1OCCCOc1ccc(OC)cc1 | inconclusive: 2.82 µM [inhibitor, partial curve, poor fit] |  |

| SMILES | Potency | activity, negative = inhibition |
| --- | --- | --- |
| CCc1ccc(NC(=O)CSc2ccc(-c3ccco3)nn2)cc1 | inconclusive: 25.1 µM [inhibitor, single point] |  |
| COc1ccc(-c2ccc([C@H]3[C@H]4C=CC[C@@H](C)[C@@H]4C(=O)N3Cc3ccccc3)c(F)c2)cc1OC | inconclusive: 25.1 µM [inhibitor, single point] |  |
| Cc1ccc(C)c(S(=O)(=O)ON2C(=O)c3ccccc3C2=O)c1 | inconclusive: 11.2 µM [inhibitor, single point] |  |
| Cc1cccc(N2CC(c3nc4ccccc4n3CCC3CCCCC3)CC2=O)c1 (stereo not drawn) | inconclusive: 2.82 µM [inhibitor, full curve] |  |
| COc1ccc(C2/C=C\CC(NS(=O)(=O)c3ccc(C)cc3)CC(=O)N2Cc2ccccc2F)cc1 (stereo not drawn) | inconclusive: 35.5 µM [inhibitor, single point] |  |
| C=CCC1(CC=C)CCCN1C(=O)C1CCC(=O)N(CCc2ccc(Cl)cc2)C1 (stereo not drawn) | inconclusive: 35.5 µM [inhibitor, single point] |  |
| COc1cccc2nc3c(C(=O)NCCN(C)C)cccc3cc12 | inconclusive: 35.5 µM [inhibitor, partial curve, poor fit] |  |
| Cc1cccc2c1-c1sc(C(=O)NCc3ccc(Cl)cc3)cc1CO2 | inconclusive: 3.16 µM [inhibitor, single point] |  |
| C/C(=N/NS(=O)(=O)c1ccc(C)cc1C)c1c[nH]c2ccccc12 | active: 17.8 µM |  |
| COc1cc2oc(=O)cc(-c3ccc(-c4ccc(C#N)cc4)cc3)c2c(OC)c1OC | inconclusive: 3.16 µM [inhibitor, single point] |  |
| O=C(Cc1ccc(NC(=O)C2CCCN(C(=O)C3CCCCC3)C2)cc1)Nc1cccc(C(=O)N2CCCCC2)c1 (stereo not drawn) | inconclusive: 4.47 µM [inhibitor, full curve, poor fit] |  |
| Cc1cc(C)cc(NC(=O)Cn2nnc(C(=O)NCc3ccccc3Cl)c2N)c1 | inconclusive: 35.5 µM [inhibitor, partial curve, poor fit] and inconclusive: 11.2 µM [inhibitor, partial curve, poor fit] |  |
| COc1cccc(OC2(C)CCN(Cc3cccn3-c3nccs3)C2)c1 (stereo not drawn) | inconclusive: 25.1 µM [inhibitor, single point] |  |
| O=C(NCCN1CCNC1=O)C1CCC(=O)N(Cc2ccccc2F)C1 (stereo not drawn) | inconclusive: 3.55 µM [inhibitor, single point] |  |
| N#C/C(=N\Nc1ccc(Cl)cc1)C(=O)c1ccsc1 | inconclusive: 3.98 µM [inhibitor, full curve] |  |
| Cc1ccc(-c2nc(CN(C)Cc3cccc4cnccc34)c(C)o2)s1 | inconclusive: 11.2 µM [inhibitor, partial curve, poor fit] |  |
| CCn1cc(C(=O)N[C@H](C)c2ccccc2)c(=O)c2cc(F)c(N3CCN(C)CC3)cc21 | inconclusive: 35.5 µM [inhibitor, single point] |  |
| CCC(C)Nc1nc(SC(C(C)=O)C(C)=O)nc(N(C)C)n1 (stereo not drawn) |  | inactive: -2.21% |
| O=C(Nc1cc(C(F)(F)F)ccc1N1CCCCC1)c1ccc(Br)o1 |  | inactive: 16.3% |
| CCOC(=O)c1noc2ncnc(N3CCN(c4cccc(Cl)c4)CC3)c12 | inconclusive: 22.4 µM [inhibitor, single point] |  |
| COc1ccc(N/C=C/C(=O)c2sc(-c3ccccc3)nc2C)cc1 |  | inactive: 24.9% |

| SMILES | Potency | activity, negative = inhibition |
| --- | --- | --- |
| S=C(NCc1ccco1)Nc1cc(-c2ccccc2)[nH]n1 |  | inactive: -18.9% |
| N#CC1=C(N)Oc2n[nH]c(-c3cccs3)c2C1c1cccs1 (stereo not drawn) | inconclusive: 22.4 µM [inhibitor, single point] |  |
| CCOc1ccc(CN(C(=O)c2nc(SC)ncc2Cl)C2CCS(=O)(=O)C2)cc1 (stereo not drawn) |  | inactive: -15.1% |
| CCNc1nc(NC(C)(C)C)nc(N(CC)n2cnnc2)n1 | inconclusive: 35.5 µM [inhibitor, single point] |  |
| CCOc1ccccc1C(=O)Nc1cc(Cl)ccc1O | inconclusive: 31.6 µM [inhibitor, single point] |  |
| O=C(Nc1nc2ccc(S(=O)(=O)N3CCCC3)cc2s1)c1ccc(F)cc1 | inconclusive: 35.5 µM [inhibitor, single point] |  |
| C/C(CC1CC(COCCC(C)C)OC1=O)=N\NC(N)=S (stereo not drawn) | inconclusive: 35.5 µM [inhibitor, single point] |  |
| CC1CCCCN1CCCNC(=O)c1ccc2c(c1)sc1nc(-c3ccc(F)cc3)cn12 (stereo not drawn) | inconclusive: 35.5 µM [inhibitor, single point] |  |
| CCOC(=O)N1CCc2c(sc(NC(=O)C3COc4ccccc4O3)c2C(N)=O)C1 (stereo not drawn) |  | inactive: 0.403% |
| CCc1nn(CC(=O)NCc2ccccc2Cl)c(=O)c2cc3ccccc3n12 | inconclusive: 35.5 µM [inhibitor, single point] |  |
| Cc1cccc(NC(=O)CSc2nc(=O)n(Cc3ccco3)c3c2CCC3)c1C | inconclusive: 35.5 µM [inhibitor, single point] |  |
| CCO[C@@H]1OC(C(=O)NCc2nc3ccccc3[nH]2)=C[C@H](c2csc3ccccc23)[C@H]1CCCO | inconclusive: 35.5 µM [inhibitor, partial curve, poor fit] |  |
| C[C@@H]1CN([C@@H](C)CO)C(=O)c2cc(Br)cnc2O[C@H]1CN(C)C(=O)c1ccccc1F |  | inactive: 3.12% |
| Cc1cc(Br)cn2c(Cc3ccsc3)c(-c3ccccc3)nc12 | inconclusive: 12.6 µM [inhibitor, partial curve, poor fit] |  |
| Cc1ccc(OCCNS(=O)(=O)c2ccc(N3CCCC3=O)cc2)cc1C | inconclusive: 7.08 µM [inhibitor, partial curve] |  |
| Cc1cc(C(=O)Cn2nnc(-c3ccc(Cl)cc3)n2)c(C)n1CC1CCCO1 (stereo not drawn) | inconclusive: 3.55 µM [inhibitor, partial curve, poor fit] |  |
| COc1cccc(C2=C(C(C)=O)Sc3nnc(C4CCCCC4)n3N2C(C)=O)c1 | inconclusive: 12.6 µM [inhibitor, partial curve] |  |
| NC(=O)C(c1ccccc1)c1ccc(C(=O)c2ccccc2)cc1 (stereo not drawn) |  | inactive: -17.5% |
| Cc1ccc(C)c(S(=O)(=O)Nc2ccc(C(=O)N3CCCCC3)cc2)c1 |  | inactive: 6.68% |
| N#Cc1ccc2sn(-c3ccccc3)c(=O)c2c1 | inconclusive: 2.51 µM [inhibitor, full curve, poor fit] |  |
| c1c[nH]c(CN2CCN(Cc3ncc[nH]3)CC2)n1 | inconclusive: 14.1 µM [inhibitor, partial curve, poor fit] |  |

— PubChem BioAssay AID588855 (National Center for Advancing Translational Sciences (NCATS), 2011)
